Laboratory results from PMC4336329 (PLoS ONE, 2015).
Hit rate of the full screen: of about 310,000 compounds, about 2,200 (0.71%) showed an effect of 50% or more. Effects have a minus sign here. The list shows a part of the results.

These molecules were tested against human ether-à-go-go-related gene (hERG) potassium channel (human, UniProt Q12809) (assay: primary screen, population patch clamp on CHO cells stably expressing hERG).
Sequence of human ether-à-go-go-related gene (hERG) potassium channel (Q12809 whole entry, looked up): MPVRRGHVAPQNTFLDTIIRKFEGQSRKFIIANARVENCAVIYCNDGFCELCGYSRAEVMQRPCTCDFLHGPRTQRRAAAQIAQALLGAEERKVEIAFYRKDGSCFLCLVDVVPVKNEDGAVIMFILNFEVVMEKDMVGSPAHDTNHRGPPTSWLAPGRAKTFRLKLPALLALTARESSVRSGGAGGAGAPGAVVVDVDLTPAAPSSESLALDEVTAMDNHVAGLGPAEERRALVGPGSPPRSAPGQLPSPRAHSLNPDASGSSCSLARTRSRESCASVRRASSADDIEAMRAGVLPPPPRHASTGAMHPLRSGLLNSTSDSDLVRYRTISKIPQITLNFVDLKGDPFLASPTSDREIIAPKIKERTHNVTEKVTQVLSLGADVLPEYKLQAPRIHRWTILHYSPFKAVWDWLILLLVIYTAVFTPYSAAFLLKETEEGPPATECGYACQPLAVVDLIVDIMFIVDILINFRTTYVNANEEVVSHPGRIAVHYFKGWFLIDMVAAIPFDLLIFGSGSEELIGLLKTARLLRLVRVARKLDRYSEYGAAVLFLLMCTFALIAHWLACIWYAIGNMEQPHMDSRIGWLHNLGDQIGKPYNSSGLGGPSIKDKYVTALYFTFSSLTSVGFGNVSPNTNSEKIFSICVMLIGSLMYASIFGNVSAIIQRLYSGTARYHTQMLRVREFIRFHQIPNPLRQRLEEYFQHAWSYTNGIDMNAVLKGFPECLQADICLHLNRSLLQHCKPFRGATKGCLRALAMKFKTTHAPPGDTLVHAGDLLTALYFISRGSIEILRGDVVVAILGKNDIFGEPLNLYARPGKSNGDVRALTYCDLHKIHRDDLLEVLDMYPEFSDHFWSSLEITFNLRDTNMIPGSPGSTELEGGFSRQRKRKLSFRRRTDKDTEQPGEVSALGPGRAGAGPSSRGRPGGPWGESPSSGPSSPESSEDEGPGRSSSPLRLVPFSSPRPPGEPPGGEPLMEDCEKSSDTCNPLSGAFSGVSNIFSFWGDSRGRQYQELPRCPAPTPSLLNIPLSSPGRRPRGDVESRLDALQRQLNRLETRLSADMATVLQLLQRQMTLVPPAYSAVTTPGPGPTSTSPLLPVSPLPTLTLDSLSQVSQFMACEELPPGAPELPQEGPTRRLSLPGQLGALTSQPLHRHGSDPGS

Structure (SMILES)	hERG current change (%, negative = inhibition) at 1uM
CCc1ccc(/C(C)=N/Nc2cc(Cl)nc(C)n2)cc1	14.9%
CCOC(=O)c1c(C)oc2ccc(O)c(CN3CCCCC3)c12	-14.4%
COCc1ccc(-c2c(-c3cccc(OC)c3)sc3ccc(OC)cc23)cc1	11.4%
Cc1cccc2cc(-c3ccccc3)c(-c3ccccc3)c[n+]12.[Br-]	-5.36%
COC(=O)C1C/C(=N\NS(=O)(=O)c2ccc(C)cc2)c2sccc2C1 (stereo not drawn)	3.01%
O=C1COc2ccc3ccccc3c2CN1	10.5%
CC1(O)CCN2C(=O)CCc3cccc1c32 (stereo not drawn)	-0.42%
NC(=O)C1(N2CCCCC2)CCN(C2CC(=O)N(CCc3ccccc3)C2=O)CC1 (stereo not drawn)	-1.13%
Cn1c(=O)c2c(nc(N3CCc4ccccc4C3)n2Cc2ccccc2F)n(C)c1=O	3.55%
O=C(CCNC(=O)C1CCN(S(=O)(=O)c2ccccc2)CC1)Nc1cccc(C(F)(F)F)c1	2.36%
COc1cc(-c2noc(CCC(=O)NC3CCCCC3)n2)cc(OC)c1OC	15.1%
O=C(c1ccc(C(=O)N2CCCCCC2)cc1)N1CCCCCC1	-0.715%
CC1CC(C)CN(CCC(=O)Nc2cccc(Cl)c2)C1 (stereo not drawn)	-26.9%
O=C(Nc1ccnc(-c2cccnc2)n1)c1cccc(Cl)c1Cl	9.13%
CCN(CC)C(=S)Nc1ccc(C(=O)OC)cc1	3.93%
CCOC(=O)C1=C(C)Nc2ncnn2C1c1cc(Br)ccc1F (stereo not drawn)	8.42%
CN(CC(=O)Nc1c(Cl)cccc1Cl)C(=O)CNC(=O)c1ccc2ccccc2c1	10.3%
CC(Sc1nnnn1-c1ccc(O)cc1)C(=O)NC1CCCCC1C (stereo not drawn)	7.54%
Cc1oc(-c2cccc3ccccc23)nc1CN1CCN(c2ncnc3ccccc23)CC1	2.48%
CCC1=Nc2cc(C(=O)NCc3cccnc3)ccc2Sc2ccc(C)cc21	9.85%
O=C(CN(C(=O)C1CSC(=O)C1)c1ccccc1F)NCc1ccc2c(c1)OCO2 (stereo not drawn)	2.3%
Cc1ccc(S(=O)(=O)CCC(=O)OCC(=O)N2c3ccccc3NC(=O)C2(C)C)cc1	13.5%
Cc1c2cnn(CC(=O)N3CCC4(CC3)OCCO4)c(=O)c2c(C)n1Cc1ccccc1	-3.91%

Structure (SMILES)	hERG current change (%, negative = inhibition) at 1uM
O=C(N/N=C/c1ccc(OC(F)F)cc1OC(F)F)c1ccc(Br)cc1	10.7%
c1ccc(CCN2CCN(c3ncnc4c3cnn4-c3ccccc3)CC2)cc1	8.45%
CCn1c(=O)cc(OCC(=O)N2CCCCCC2)c2ccccc21	11.2%
CCCCCC(=O)Nc1cc(S(=O)(=O)N2CCOCC2)ccc1N1CCCCC1	0.999%
Cc1cc(/C=C2\C(=O)NC(=O)N(Cc3ccccc3Cl)C2=O)c(C)n1-c1ccc(C(=O)O)cc1	20.9%
CCOc1ccc(C(=O)Nc2cccc(-c3nc4ccccc4[nH]3)c2C)cc1[N+](=O)[O-]	-4.51%
Cc1nn(C)c(C)c1C1C(C#N)=C(N)Oc2n[nH]c(C)c21 (stereo not drawn)	3.63%
Cc1ccc(N/N=C/c2ccc(N3CCOCC3)cc2)cc1C	6.49%
COc1ccc(CNC(=O)CN2CCC(NC(=O)c3ccccc3C)CC2)cc1	-3.19%
O=S(=O)(c1ccc2c(c1)nc1n2CCC1)N1CCOCC1	-13.3%
COc1ccc(-c2csc(N3N=C(C)C(C)C3=O)n2)cc1 (stereo not drawn)	4.01%
COCCNC(C)C(=O)C12CC3CC(CC(C3)C1)C2.Cl (stereo not drawn)	5.23%
Cc1nnc(SCC(=O)N(C2CCCCC2)C2CCS(=O)(=O)C2)n1C (stereo not drawn)	17.5%
CCNC(=S)N(CCCN(C)C)Cc1cc2cc3c(cc2[nH]c1=O)OCCO3	3.41%
CCNC(=S)N=Nc1c(O)n(Cc2ccc(Cl)cc2)c2ccccc12	2.86%
[O-]c1c[n+](-c2ccccc2)no1	11.2%
C[n+]1cnc(-c2ccccc2)cc1-c1ccccc1.[I-]	9.5%
Cc1cc(OCC(=O)NC2CC2)c2c(C)cc(=O)oc2c1	15%
Cc1cccc(C(=O)Nc2nc3ccc(S(C)(=O)=O)cc3s2)c1	7.82%
CCOC(=O)C1CCN(C(=O)CCNC(=O)c2ccccc2OC)CC1	12.6%
CN(CC1CCN(CCc2cccc(C(F)(F)F)c2)CC1)C(=O)c1ccc(F)cc1	-60%
CC1(C)OC(=O)N(NCc2ccccc2)C1(C)O (stereo not drawn)	12.1%
O=C(COC(=O)c1ccc(O)cc1O)NNC(=O)c1cccs1	11.9%

Structure (SMILES)	hERG current change (%, negative = inhibition) at 1uM
COc1ccc(C2=CC(=O)C[C@H](c3ccc(Cl)cc3)C2)cn1	5.1%
O=C(Nc1cccc(Cl)c1)C1=Cc2cc(Cl)ccc2OC1	5.28%
CCOC(=O)c1cc(C)nc(S(C)(=O)=O)c1C#N	11.8%
COc1ccccc1NC(=S)N(CCCN1CCOCC1)Cc1ccccn1	2.97%
CCN(CC(=O)NCCc1ccc(Cl)cc1)Cc1nc2ccccc2c(=O)[nH]1	-15.7%
O=C(Cc1ccc2cccnc2c1)c1ccc(O)cc1O	16.6%
O=C1/C(=C/c2ccc([N+](=O)[O-])cc2)Oc2cc(O)ccc21	5.48%
O=C(O)CC(NC(=O)Cc1ccc([N+](=O)[O-])cc1)c1ccc2c(c1)OCO2 (stereo not drawn)	7.63%
CCOc1ccc(OCc2ccc(C(=O)N(C)c3ccccc3)o2)cc1	11.5%
O=C(Nc1ccccc1Cl)c1cc(S(=O)(=O)N2CCOCC2)cs1	0.216%
Nc1ccn(Cc2cccc(F)c2)n1	14%
CCSc1nc(-c2ccccc2)c2cc(Cl)ccc2n1	12.4%
Cn1c(=O)c2c(nc(CN3CCN(C(c4ccccc4)c4ccccc4)CC3)n2CC(N)=O)n(C)c1=O	-1.66%
O=C(c1ccc(CS(=O)(=O)c2cccc(C(F)(F)F)c2)o1)N1CCN(c2ccccn2)CC1	-15.1%
O=C1N/C(=N\c2ccccn2)SC1Cc1ccc(Cl)cc1 (stereo not drawn)	9.93%
O=C(COc1cc(Cl)ccc1Cl)Nc1nnc(CC(=O)N2CCOCC2)s1	7.03%
CC(Oc1ccc2oc(-c3ccccc3)c(C(=O)O)c2c1)C(=O)O (stereo not drawn)	12.8%
O=C(CN1C(=O)NC2(CCCC2)C1=O)Nc1cccc(Cl)c1Cl	14.8%
O=C(O)CC(Cc1ccccc1)c1ccc2c(c1)OCO2 (stereo not drawn)	12.4%
CCC(C)N1CCN(S(=O)(=O)Cc2ccccc2)CC1 (stereo not drawn)	12.9%
Cc1csc(NC(=O)c2cccnc2)n1	19.3%
CCOC(=O)c1cc(C(O)(C(F)(F)F)C(F)(F)F)c(/N=C/N(C)C)o1	9.91%
CCc1c(C)nc(N)n2c(SCC(=O)Nc3ccccc3OC)nnc12	11%

Structure (SMILES)	hERG current change (%, negative = inhibition) at 1uM
COCCn1nnnc1C(c1cccc(C#N)c1)N1CCCCCC1.Cl (stereo not drawn)	-1.89%
CC(C)NC(=O)C(Cc1ccccc1)N1C(=O)c2ccccc2C1=O (stereo not drawn)	4.68%
Nc1cc(=O)[nH]c(SCC(=O)N2CCC(Cc3ccccc3)CC2)n1	9.62%
COc1ccc(-n2c(N)c(C(=O)Nc3c(C)n(C)n(-c4ccccc4)c3=O)c3nc4ccccc4nc32)cc1	-13.9%
Cc1cc(NC(=O)CSc2nc3ccccc3n2CCC#N)no1	11.9%
CCn1cc(C(=O)N[C@@H](C)C(=O)NCCO)c(=O)c2cc3c(cc21)OCO3	13.4%
CCn1c(SCc2ccccc2)nc2cc(OC)c(OC)cc2c1=O	9.49%
CC(C)CNC(=O)c1ccccc1NC(=O)/C=C/c1cccc([N+](=O)[O-])c1	23.5%
CCCS(=O)(=O)N1CCCC(C(=O)N2CCC3(CC2)OCCO3)C1 (stereo not drawn)	13.3%
CCOc1ccccc1C(C(=O)NC1CCCC1)N(C(=O)c1csnn1)C1CC1 (stereo not drawn)	13.9%
Cc1c(NC(=S)Nc2ccccc2C(F)(F)F)cccc1[N+](=O)[O-]	11.2%
c1ccc(-c2ccc(SCc3cccnc3)nn2)nc1	10.7%
CNC(=O)Cn1c(C)cc(=O)c2cccc(OC)c21	10.6%
Cc1ccc(OCC(=O)NCCc2nc3ccccc3[nH]2)c(C)c1	2.02%
CCc1ccccc1NC(=O)COc1ccc2c(c1)OCO2	10.6%
CN(c1ccc(C(=O)Nc2nccs2)cc1)S(=O)(=O)c1ccccc1	0.38%
COc1ccc(CCNC(=O)CSc2nnc(NC(C)=O)s2)cc1OC	-2.18%
O=C(O)C1CC(=O)N(Cc2ccccc2)C1 (stereo not drawn)	17.6%
CC(C)Cn1cc(C(=O)N2CCN(c3ccccn3)CC2)c2c3ccccc3n(C)c2c1=O	0.523%
COCCC1CCCCN1C(=O)c1cc(COc2ccc(-n3cncn3)cc2)on1 (stereo not drawn)	2.41%
Cc1cc(NC(=O)/C=C/c2ccccc2)c(C(C)C)cc1O	10.9%
